According to the supplement of paper PMC6089552:
About 300 (9.4%) of roughly 3,200 compounds showed activity. The list shows a part of the results, in another mix than the full data.

System: A673/TR/shEF
Assay: cell viability (LOESS-normalised, relative to median of negative controls) (log2 ratio); higher = more viable cells (less compound effect), active = hit call of the paper (over 3 MAD below the median)
Conditions: treatment time: 72 h
How it was run: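 For three days, A673/TR/shEF Ewing sarcoma cells in 384-well plates (1,500 per well) were treated with library compounds at two or more concentrations or with DMSO controls, after doxycycline had been added or withheld 24 h beforehand to induce EWS-FLI1 shRNA knockdown. Viability was read by CellTiter-Glo luminescence on an Envision reader. The data were LOESS-corrected per plate, divided by the median of negative controls and log2-transformed.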

[1] = 0.25 µM, library screen: screen1, EWS-FLI1 expression: high (no doxycycline)
[2] = 0.25 µM, library screen: screen1, EWS-FLI1 expression: low (doxycycline-induced shRNA knockdown)
[3] = 2.5 µM, library screen: screen1, EWS-FLI1 expression: high (no doxycycline)
[4] = 2.5 µM, library screen: screen1, EWS-FLI1 expression: low (doxycycline-induced shRNA knockdown)
[5] = 0.25 µM, library screen: screen2, EWS-FLI1 expression: high (no doxycycline)
[6] = 0.25 µM, library screen: screen2, EWS-FLI1 expression: low (doxycycline-induced shRNA knockdown)
[7] = 2.5 µM, library screen: screen2, EWS-FLI1 expression: high (no doxycycline)
[8] = 2.5 µM, library screen: screen2, EWS-FLI1 expression: low (doxycycline-induced shRNA knockdown)
[9] = 0.103 µM, library screen: screen3, EWS-FLI1 expression: high (no doxycycline)
[10] = 0.103 µM, library screen: screen3, EWS-FLI1 expression: low (doxycycline-induced shRNA knockdown)
[11] = 0.308 µM, library screen: screen3, EWS-FLI1 expression: high (no doxycycline)
[12] = 0.308 µM, library screen: screen3, EWS-FLI1 expression: low (doxycycline-induced shRNA knockdown)
[13] = 0.926 µM, library screen: screen3, EWS-FLI1 expression: high (no doxycycline)
[14] = 0.926 µM, library screen: screen3, EWS-FLI1 expression: low (doxycycline-induced shRNA knockdown)
[15] = 2.8 µM, library screen: screen3, EWS-FLI1 expression: high (no doxycycline)
[16] = 2.8 µM, library screen: screen3, EWS-FLI1 expression: low (doxycycline-induced shRNA knockdown)
[17] = 8.3 µM, library screen: screen3, EWS-FLI1 expression: high (no doxycycline)
[18] = 8.3 µM, library screen: screen3, EWS-FLI1 expression: low (doxycycline-induced shRNA knockdown)
[19] = 25 µM, library screen: screen3, EWS-FLI1 expression: high (no doxycycline)
[20] = 25 µM, library screen: screen3, EWS-FLI1 expression: low (doxycycline-induced shRNA knockdown)

Measured: cell viability (log2)

CCOC(=O)c1c(C)cc(O)cc1O
inactive: [1] 0.0788 | [2] 0.0693 | [3] 0.0357 | [4] 0.0819

CC(C)Cn1c(=O)n(C)c(=O)c2[nH]cnc21
inactive: [1] -0.0223 | [2] -0.0167 | [5] 0.0628 | [6] 0.118 | [3] 0.0644 | [4] 0.0361 | [7] 0.0149 | [8] 0.112

CCCCOc1cc(CC2CNC(=O)N2)ccc1OC (centres undefined)
inactive: [5] 0.267 | [6] 0.169 | [7] 0.152 | [8] 0.0628

COc1cc([C@@H]2c3cc4c(cc3[C@@H](O[C@@H]3O[C@@H]5CO[C@@H](c6cccs6)O[C@H]5[C@H](O)[C@H]3O)[C@H]3COC(=O)[C@H]23)OCO4)cc(OC)c1O
inactive: [9] -0.0319 | [10] -0.00588 | [12] -0.0159
active: [1] -0.797 | [2] -0.349 | [11] -0.326 | [13] -0.931 | [14] -0.262 | [3] -1.74 | [4] -0.557 | [15] -1.32 | [16] -0.472 | [17] -2.12 | [18] -0.477 | [19] -3.07 | [20] -0.784

CON
inactive: [1] 0.0595 | [2] 0.0208 | [3] 0.11 | [4] -0.0161

Cc1nc(Nc2ncc(C(=O)Nc3c(C)cccc3Cl)s2)cc(N2CCN(CCO)CC2)n1
inactive: [9] -0.00181 | [10] -0.0394 | [11] -0.125 | [12] -0.364
active: [13] -0.395 | [14] -0.907 | [15] -0.393 | [16] -1.27 | [17] -0.457 | [18] -1.34 | [19] -0.706 | [20] -1.33

CCN(CCO)CCCC(C)Nc1ccnc2cc(Cl)ccc12 (centres undefined)
inactive: [1] 0.00358 | [2] 0.138 | [3] 0.146 | [4] 0.0473

CC(C)c1ccc2c(c1)c(SC(C)(C)C)c(CC(C)(C)C(=O)O)n2Cc1ccc(Cl)cc1
inactive: [5] 0.108 | [6] 0.0402 | [7] 0.11 | [8] 0.113

COc1cc(O)c2c(=O)cc(-c3ccc(O)cc3)oc2c1
inactive: [1] 0.0387 | [2] 0.0715 | [3] 0.112 | [4] 0.0435

C[C@@H](O)[C@H]1C(=O)N2C(C(=O)[O-])=C(SC3Cn4cnc[n+]4C3)[C@H](C)[C@H]12 (some centres undefined)
inactive: [9] 0.0935 | [10] 0.0362 | [11] 0.108 | [12] 0.0849 | [13] 0.0657 | [14] 0.0643 | [15] 0.107 | [16] 0.0482 | [17] 0.0477 | [18] 0.0712 | [19] 0.131 | [20] 0.0731

Cc1nc(-c2ccc(OCC(C)C)c(C#N)c2)sc1C(=O)O
inactive: [9] 0.0284 | [10] 0.0416 | [11] 0.0934 | [12] 0.0712 | [13] 0.041 | [14] 0.0602 | [15] 0.0702 | [16] -0.0146 | [17] 0.0469 | [18] 0.0999 | [19] 0.0851 | [20] 0.0135

CC(=O)[C@H]1CC[C@H]2[C@@H]3CC=C4C[C@@H](O)CC[C@]4(C)[C@H]3CC[C@]12C
inactive: [1] 0.241 | [2] 0.273 | [3] 0.258 | [4] 0.296

CN(C)c1ccc(C(=C2C=CC(=[N+](C)C)C=C2)c2ccc(N(C)C)cc2)cc1
inactive: [9] 0.0956 | [10] -0.0594 | [1] 0.105 | [2] 0.00922 | [11] 0.0542 | [12] 0.0588 | [13] 0.098 | [14] 0.0226 | [3] 0.0691 | [4] 0.106
active: [15] -0.295 | [16] -0.547 | [17] -2.54 | [18] -1.19 | [19] -4.26 | [20] -1.87

Oc1cc2c(cc1O)[C@@H]1c3ccc(O)c(O)c3OC[C@]1(O)C2
inactive: [1] -0.00452 | [2] 0.0855 | [3] 0.0593 | [4] 0.105

O=c1c(-c2cc(O)c(O)c(O)c2)coc2cc(O)c(O)c(O)c12
inactive: [1] 0.0125 | [2] 0.0303 | [3] 0.111 | [4] 0.0681

C/C=C(/C)C(=O)O[C@H]1[C@H](OC(C)=O)[C@]2(CO)[C@H](O)C[C@]3(C)C(=CC[C@@H]4[C@@]5(C)CC[C@H](O[C@@H]6O[C@H](C(=O)O)[C@@H](O[C@@H]7O[C@H](CO)[C@@H](O)[C@H](O)[C@H]7O)[C@H](O)[C@H]6O[C@@H]6O[C@H](CO)[C@@H](O)[C@H](O)[C@H]6O)[C@](C)(CO)[C@@H]5CC[C@]43C)[C@@H]2CC1(C)C.C/C=C(\C)C(=O)O[C@H]1[C@H](OC(C)=O)[C@@]2(CO)C(CC1(C)C)C1=CCC3[C@@]4(C)CC[C@H](O[C@@H]5O[C@H](C(=O)O)[C@@H](O[C@@H]6O[C@H](CO)[C@@H](O)[C@H](O)[C@H]6O)[C@H](O)[C@H]5O[C@@H]5O[C@H](CO)[C@@H](O)[C@H](O)[C@H]5O)[C@](C)(CO)C4CC[C@@]3(C)[C@]1(C)C[C@H]2O
inactive: [1] 0.0112 | [2] -0.0408 | [3] 0.0934 | [4] 0.0403

CC(C)CCC[C@@H](C)C1CC[C@H]2[C@@H]3CCC4=CC(=O)C=C[C@]4(C)[C@H]3CC[C@]12C (some centres undefined)
inactive: [1] 0.107 | [2] 0.0599 | [3] 0.105 | [4] 0.0638

c1ccc2nc(C3=NCCN3)ccc2c1
inactive: [5] 0.245 | [6] 0.115 | [7] 0.149 | [8] 0.0346

CC(C)(C)c1ccc(C(O)CCCN2CCC(C(O)(c3ccccc3)c3ccccc3)CC2)cc1 (centres undefined)
inactive: [1] 0.12 | [2] 0.0182 | [5] 0.13 | [6] 0.0514 | [3] 0.155 | [4] 0.0701 | [7] 0.115 | [8] 0.121

CC(COc1ccccc1)NC(C)C(O)c1ccc(O)cc1 (centres undefined)
inactive: [1] 0.163 | [2] 0.0434 | [3] 0.178 | [4] 0.141

Cc1cc(=O)oc2c(O)c(O)ccc12
active: [1] -0.0965
inactive: [2] -0.0218 | [3] 0.0459 | [4] 0.107

CC12CCCC(O)(C1)C1CC(C)(C)C1CC2 (centres undefined)
inactive: [1] 0.066 | [2] -0.02 | [3] 0.0972 | [4] 0.0732

CC1(C)[C@@H](O)CC[C@]2(C)[C@H]3C(=O)C=C4[C@H]5C[C@@](C)(C(=O)O)CC[C@]5(C)CC[C@@]4(C)[C@]3(C)CC[C@@H]12
inactive: [1] 0.0636 | [2] 0.00472 | [3] 0.0997 | [4] 0.00867

CCCCN1CCCCC1C(=O)Nc1c(C)cccc1C (centres undefined)
inactive: [9] 0.00164 | [10] 0.0668 | [1] 0.0866 | [2] 0.0118 | [11] 0.104 | [12] 0.0911 | [13] 0.0187 | [14] 0.0271 | [3] 0.0729 | [4] 0.0348 | [15] 0.069 | [16] 0.0597 | [17] 0.0524 | [18] 0.0226 | [19] -0.0308 | [20] 0.0529

CCOC(=O)NNc1nncc2ccccc12
inactive: [1] 0.0833 | [2] 0.0551 | [3] 0.0996 | [4] 0.0515

O=c1cccc2cc(O)c(O)c(O)c2c1O
inactive: [1] -0.000737 | [2] -0.0453 | [3] 0.0367 | [4] 0.0294

S=c1[nH]c2ccccc2s1
inactive: [1] 0.0991 | [2] 0.0131 | [3] 0.0972 | [4] 0.000826

CC(=O)O[C@@H]1CC2C(C)(CC[C@H](O)C2(C)C)C2CC[C@]3(C)C(=CC(=O)O[C@H]3c3ccoc3)C21C (some centres undefined)
inactive: [1] 0.0235 | [2] 0.0343 | [3] 0.111 | [4] 0.124

CC(C)CCC[C@@H](C)[C@H]1CC[C@H]2[C@@H]3CC[C@H]4C[C@@H](O)CC[C@]4(C)[C@H]3CC[C@]12C
inactive: [1] 0.0663 | [2] 0.113 | [3] 0.0848 | [4] 0.113

CC1=C(CCC(=O)O)c2cc3nc(cc4[nH]c(cc5[nH]c(cc1n2)c(C)c5C(C)O)c(C)c4C(C)O)C(C)=C3CCC(=O)O (centres undefined)
inactive: [1] 0.0188 | [2] -0.0279 | [3] 0.0578 | [4] 0.0876

CC(=O)c1c(O)c(C)c(O)c2c1oc1c(C(C)=O)c(O)c(C)c(O)c12
inactive: [1] 0.0278 | [2] -0.0408 | [3] 0.0533 | [4] 0.172

COc1ccc([C@@H]2CC(=O)c3c(O)cc(O)cc3O2)cc1O
inactive: [1] 0.00579 | [2] 0.0571 | [3] 0.135 | [4] -0.0786

CC1=C(/C=C/C(C)=C/C=C/C(C)=C/C=C/C=C(C)/C=C/C=C(C)/C=C/[C@@]23O[C@]2(C)C[C@@H](O)CC3(C)C)C(C)(C)C[C@H](O)C1
inactive: [1] 0.0858 | [2] 0.0984 | [3] 0.143 | [4] 0.132

C[N+]1(C)CCC(OC(=O)C(c2ccccc2)c2ccccc2)CC1
inactive: [5] 0.105 | [6] 0.109 | [7] 0.164 | [8] 0.111
